In all, about 310,000 compounds went through this assay and about 14,000 (4.5%) showed an effect of 50% or more. The effect is printed as a negative number. The list shows a part of the results.
Each compound was assayed against human ether-à-go-go-related gene (hERG) potassium channel (human, UniProt Q12809) (assay: primary screen, population patch clamp on CHO cells stably expressing hERG).
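Note: peak tail current of the secondary pulse compared with the same well before compound.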

Chain of human ether-à-go-go-related gene (hERG) potassium channel (Q12809 whole entry, looked up): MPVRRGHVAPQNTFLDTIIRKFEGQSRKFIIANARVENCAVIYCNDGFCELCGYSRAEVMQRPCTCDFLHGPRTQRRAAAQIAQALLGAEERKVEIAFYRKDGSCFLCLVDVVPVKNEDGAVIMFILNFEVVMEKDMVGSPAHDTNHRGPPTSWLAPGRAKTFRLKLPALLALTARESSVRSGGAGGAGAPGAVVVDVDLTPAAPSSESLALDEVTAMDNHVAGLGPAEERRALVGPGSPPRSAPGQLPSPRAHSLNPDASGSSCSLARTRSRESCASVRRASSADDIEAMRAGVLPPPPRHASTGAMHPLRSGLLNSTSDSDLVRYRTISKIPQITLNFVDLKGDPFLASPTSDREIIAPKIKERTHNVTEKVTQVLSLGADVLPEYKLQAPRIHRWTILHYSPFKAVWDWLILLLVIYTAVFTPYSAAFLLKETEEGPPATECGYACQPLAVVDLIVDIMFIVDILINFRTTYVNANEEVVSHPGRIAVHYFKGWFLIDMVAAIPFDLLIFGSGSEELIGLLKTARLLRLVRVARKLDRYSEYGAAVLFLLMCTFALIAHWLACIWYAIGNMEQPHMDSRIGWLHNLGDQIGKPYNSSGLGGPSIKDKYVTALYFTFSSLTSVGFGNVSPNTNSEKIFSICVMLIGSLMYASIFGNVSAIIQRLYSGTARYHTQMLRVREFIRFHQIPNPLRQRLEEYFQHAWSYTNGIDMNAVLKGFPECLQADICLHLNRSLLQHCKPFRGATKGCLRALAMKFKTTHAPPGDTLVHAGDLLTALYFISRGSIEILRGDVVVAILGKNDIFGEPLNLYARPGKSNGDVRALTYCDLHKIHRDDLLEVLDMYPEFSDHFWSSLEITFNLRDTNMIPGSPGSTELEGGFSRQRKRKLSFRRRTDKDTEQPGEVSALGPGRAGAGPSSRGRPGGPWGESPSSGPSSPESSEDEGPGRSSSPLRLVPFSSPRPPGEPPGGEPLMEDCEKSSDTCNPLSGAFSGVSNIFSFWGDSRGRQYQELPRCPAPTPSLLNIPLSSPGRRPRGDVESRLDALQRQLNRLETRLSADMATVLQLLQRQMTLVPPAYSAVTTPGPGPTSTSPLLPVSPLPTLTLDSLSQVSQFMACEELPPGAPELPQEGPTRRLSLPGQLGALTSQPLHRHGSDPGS

Row | Structure (SMILES) | hERG current change (%, negative = inhibition) at 10uM [%]
1 | Cc1cc(C(=O)Nc2c(F)cc(F)cc2Br)no1 | 17.9
2 | Cc1cc(Cl)ccc1OCCNC(=S)NC(=O)c1cccnc1 | 15.1
3 | COc1ccc(-c2cc(C(F)(F)F)c(C#N)c(SCC(=O)O)n2)cc1 | 3.28
4 | CC1(C)OC(c2ccccc2)=C/C(=C/C=C2C(=O)NC(=O)NC2=O)O1 | 6.24
5 | C=CCN=C1SC(C)C(=O)N1S(=O)(=O)c1ccccc1 (centres unmarked) | -3.77
6 | NC(=O)c1ccc(NC(=O)COC(=O)CCCc2c[nH]c3ccccc23)cc1 | 55.7
7 | O=C(O)c1sc2ncccc2c1OCc1ccccc1 | -1.57
8 | Cc1c(Cl)cccc1NC(=S)N1CCN(c2ccccn2)CC1 | 15.5
9 | CC1(C)Cc2c(sc3nc(-c4ccccc4)n(N)c(=O)c23)CO1 | 17.1
10 | Cc1ccc2c(c1)N(CC(=O)NCC1CCCO1)C(=O)C(C(C)C)O2 (centres unmarked) | -7.8
11 | Cc1c(C#N)c2ccccc2n1CC(=O)N1CCCc2ccccc21 | 6.75
12 | CCn1c(SCc2cccc(C)c2)nnc1-c1ccc(C)cc1 | -63.7
13 | O=C(CN1CCCCCC1)Nc1cc([N+](=O)[O-])ccc1Cl | -0.676
14 | COc1ccccc1C(=O)Nc1ccc2nc(SCC(=O)N(C)C)sc2c1 | 4.8
15 | Cc1cc(NC(=O)CSc2nnc(CNC(=O)c3c(F)cccc3F)o2)no1 | 4.11
16 | CCc1noc(C)c1C(=O)OC(C)C(=O)Nc1cc([N+](=O)[O-])ccc1OC (centres unmarked) | -53.1
17 | CSc1nc(C)cc(Oc2ccc(OCC(N)=O)nn2)n1 | 14.5
18 | N#Cc1cc([N+](=O)[O-])c(-n2nnc3ccccc32)c([N+](=O)[O-])c1 | -7.38
19 | CCn1c(SCC(=O)Nc2sccc2C(N)=O)nnc1C1CC1 | 12.9

Row | Structure (SMILES) | hERG current change (%, negative = inhibition) at 10uM [%]
20 | Cn1c2c(c(=O)n(C)c1=O)CN(CCc1ccccc1)CN2 | -4.29
21 | Cc1ccc(N2C(=O)SC(N(CC(=O)O)c3ccc(C)cc3)C2=O)cc1 (centres unmarked) | 24.2
22 | COc1ccc(-c2nnc3ccc(SCC(=O)N4CCCCCC4)nn23)cc1OC | -22.3
23 | CN1CCCC1CCNc1ccc2sc3ccccc3c(=O)c2c1 (centres unmarked) | -34.6
24 | CC(C(=O)Nc1ccc(S(=O)(=O)N2CCOCC2)cc1)N1C(=O)C2CC=CCC2C1=O (centres unmarked) | 14.1
25 | COc1ccccc1OCc1nc(-c2cccc([N+](=O)[O-])c2)no1 | -13.2
26 | CCC(C)(NC(=O)CNC(C)=O)C(=O)NC1CCCCC1 (centres unmarked) | 1.77
27 | O=C(c1nn2c(C(F)(F)F)cc(-c3ccco3)nc2c1Br)N1CCCc2ccccc21 | 8.87
28 | C=CCc1ccc(OCCn2nnc3ccccc32)c(OC)c1 | -12.8
29 | Nc1c(S(=O)(=O)c2ccccc2)csc1C(=O)O | 1.6
30 | CCN(CC(=O)Nc1ccc(NC(C)=O)cc1)C(=O)c1oc2c(ccc3ccccc32)c1C | 5.52
31 | O=S(=O)(NC1CCCCC1Sc1ncccn1)c1ccccc1 (centres unmarked) | -5.72
32 | O=C(Nc1ccccn1)c1cccc(S(=O)(=O)N2CCc3ccccc3C2)c1 | -15.6
33 | Cc1ccc(C)c(Nc2c(F)c(F)c(F)c(F)c2C(=O)O)c1 | 17.7
34 | CCCc1nnc(NC(=O)CCCC(=O)O)s1 | 1.81
35 | CC(=O)Nc1ccc(NC(=O)CSc2nnnn2-c2ccc(F)cc2)cc1 | 15.5
36 | COC(=O)c1ccc(NC(=O)c2ccco2)cc1 | -0.103
37 | Cc1sc(-c2cccnc2)nc1OC(=O)C1CC1 | 1.39
38 | FC(F)(F)c1ccccc1NC(=S)NC1CCN(Cc2ccccc2)CC1 | -12.4

Row | Structure (SMILES) | hERG current change (%, negative = inhibition) at 10uM [%]
39 | COC(=O)c1ccc(C(=O)OC)c(NC(=S)N2CCOCC2)c1 | 14.5
40 | COc1ccccc1-n1c(SCC(=O)N2CCCC2)nc2cccnc21 | 4.58
41 | O=C(NC(c1ccccc1)c1ccccc1)c1ccc(S(=O)(=O)C(F)F)cc1 | 22.9
42 | COc1ccc(CCNC(=O)COc2ccc(C)nc2[N+](=O)[O-])cc1OC | 0.5
43 | C[C@H](NC(=O)c1ccccc1F)C(=O)N1CCC2(CC1)NCCc1[nH]cnc12 | 19.1
44 | Cc1ncsc1CCC(=O)N1CCCC(Nc2ccc(F)c(F)c2)C1 (centres unmarked) | -17.6
45 | O=C(NCC(c1ccco1)N1CCc2ccccc2C1)C(=O)Nc1cc(F)ccc1F (centres unmarked) | -52.3
46 | CCc1ccccc1NC(=O)Cn1ccn(-c2ccc(OC)cc2)c(=O)c1=O | 1.09
47 | COc1ccc(S(=O)(=O)N(C)c2ccccc2)c2cccnc12 | -5.46
48 | O=[N+]([O-])c1ccc2c(c1)OCCOCCOCCOCCOCCOCCO2 | -64.1
49 | CC(=C1C(=O)c2ccccc2C1=O)N1CCN(C/C=C/c2ccccc2)CC1 | -55.6
50 | O=C(CCN1CCN(c2ccccc2)CC1)Nc1ccc(Cl)cc1 | -17.9
51 | Cc1c(C(=O)Nc2cccc(Cl)c2)oc2ccc(S(=O)(=O)N3CCC4(CC3)OCCO4)cc12 | 2.26
52 | COc1ccc(-c2csc3ncn(-c4ccccc4OC)c(=O)c23)cc1OC | -13.8
53 | O=c1c(-c2ccc(Cl)cc2)[n+]([O-])c2ccccc2n1OCc1nc2ccccc2[nH]1 | -2.66
54 | Cc1ccc(C(O)(C(=O)NNc2ccccn2)c2ccc(C)cc2)cc1 | -5.38
55 | CCN(C(=O)COC(=O)C1CCN(S(=O)(=O)c2ccc3c(c2)OCCO3)CC1)C1CCCCC1 | -2.31
56 | O=C(COC(=O)Cc1cccs1)NCc1ccc(F)cc1 | 17.8
